Reference: the supplement of paper PMC11417369
± gives the standard deviation of the averaged measurements. Some of the results follow.

What follows are sequences tested on PfAP2-G AP2 domain (GST-tagged) (assay: gcPBM binding intensity (ln(normalized median fluorescence intensity)); higher = stronger DNA binding).
Summary of the method: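 Each value is the highest Masliner-normalised natural-log median intensity across replicate spots of either orientation of a probe. The probes were primer-extended double-stranded 36-bp intergenic genomic sequences on an Agilent 4 × 180k array, alongside negative controls, exposed for 1 h to GST-tagged P. falciparum DNA-binding domains expressed in E. coli. Bound protein was picked up with Alexa488 anti-GST antibody and scanned at 488 nm.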

| Sequence | gcPBM binding intensity (ln) |
| --- | --- |
| AGTAATAGTTTGTGCACACTCAAGTATATCATAGAT [CACACA_site6082] | 10.6 ± 0.34 |
| TACATATATACATACACACACATATAACCAATGTAG [CACACA_site2192] | 10.2 ± 0.14 |
| TTTCGCTTTATTTATGCATGCAAATAAGTTGATATT [TGCATGCA_site724] | 9.84 ± 0.17 |
| ATTTTTGTAAATACATGTACATATATATGCATATCC [XGTACX_site6353] | 11.3 ± 0.56 |
| AAAATTAAAATAGTAATACACACTTCATAGGAAATG [CACACA_site1762] | 10.06 ± 0.078 |
| AACAAGAAATAATCACGTACACATTATAATAACTAA [XGTACX_site8184] | 11.5 ± 0.9 |
| CTTTAATATTTTATTTCACACACATAAATGCCCCAA [CACACA_site8569] | 10.4 ± 0.41 |
| AAAAAAAAAGATCACACACACATAAATATAAACAAA [CACACA_site5285] | 9.995 ± 0.007 |
| TGATATTATTATAAGGTGCTTAAAAATAAAGATAAT [GTGCAC_site9539] | 9.88 ± 0.2 |
| AAAAAAAAAAAAAAAAAAAAAAAAAAAAGTTAAAAA [TGCATGCA_negctrl_site74] | 10.9 ± 0.4 |
| AGAATTTTAGATTTAGCACACATTTTTTTTTTTTTT [CACACA_site4081] | 9.955 ± 0.049 |
| ACTCGCATATTTAAATGTACTTAATTAGAAGAAAAA [XGTACX_site3304] | 11.1 ± 0.69 |
| ATATAAAATAATAAGGGTACAGGTCTCTGCGATGTT [XGTACX_site786] | 11.3 ± 0.81 |
| TAAAATATTGTTATTACATGCAACCTTATGAAAAAT [TGCATGCA_site706] | 9.99 ± 0.15 |
| AATAACTTTTTGAGATGTACATTTTTAATTCGTAGA [XGTACX_site8455] | 11.2 ± 0.83 |
| ATTCATAAAAAGAGGTGTACATTAATATAATATATA [XGTACX_site8283] | 11.5 ± 0.95 |
| TTATTCGAACAAAGGAAAAAATATATTCAAAGGAAA [TGCATGCA_negctrl_site215] | 9.73 ± 0.11 |
| AACTTGTGTGGATATTGTACTAACAATATGTATGAT [XGTACX_site6302] | 11 ± 0.72 |
| AATAGTGTATAAATTTGTACATATAATTAAAAGGAA [XGTACX_site1143] | 11 ± 0.67 |
| ACTTTAATAATTCACTTATTTTCTTATTATATTATT [CACACA_negctrl_site556] | 9.8 ± 0.21 |
| GGATTTATTTTATATACACACATACCTATATTTATA [CACACA_site7084] | 9.91 ± 0.028 |
| TTTTTAACTAACATATCAATTCCATACGTCGTCAAA [CACACA_negctrl_site560] | 9.98 ± 0.099 |

| Sequence | gcPBM binding intensity (ln) |
| --- | --- |
| TTTAAAAATTTGATCAAACACACGTTGCATAAATTA [CACACA_site3945] | 10.1 ± 0.14 |
| TTTTGTCTTCAAATCAAATGTATATAAAAAAAATAC [CACACA_negctrl_site1717] | 10.1 ± 0.27 |
| TCTATATAATACCAATGTACATAGTTTTAAGCATAA [XGTACX_site1889] | 10.8 ± 0.49 |
| AGGATATGCAGACACACACACATATAGATTTATATA [CACACA_site7100] | 9.96 ± 0.13 |
| AAAACAAAAATATAAACACACATACATTGGTTTTCT [CACACA_site5405] | 9.85 ± 0.16 |
| ATAATATAAACATACACACACACATATATATATATA [CACACA_site5591] | 10.1 ± 0.23 |
| ATAAATTGTAAAATGTGTACGCAGATATTGCGTATT [XGTACX_site332] | 11.5 ± 0.93 |
| AAAAAAATTAATGTGTGTACTTAGATATAATGTTTA [XGTACX_site8862] | 11.3 ± 0.8 |
| TAATTTTTTTTTTATTGTACTTAATATTTTTAATTT [XGTACX_site5929] | 11.3 ± 0.8 |
| CATAAAAATGGATACACACACATAATATATATATAT [CACACA_site3619] | 10.2 ± 0.3 |
| TATTTTTTTTTTTTTTTTTTTACCTTTCCACTCAAA [CACACA_negctrl_site1454] | 9.84 ± 0.34 |
| TCATTCTAAATATAAACACACATAAATATGTACATT [CACACA_site7555] | 11.2 ± 0.9 |
| TTTTTTTTTTTTAAAAGTACATAGTAGTAATTATAG [XGTACX_site4232] | 11.3 ± 0.95 |
| TTACAAATATTATAAAGTACAAACCAGTAGATTTTG [XGTACX_site2272] | 11 ± 0.7 |
| TTTTTTTTTTTTAATGCACACAGTGAACTTTTACTT [CACACA_site3567] | 10.2 ± 0.4 |
| GACATTTCTTGGGATACATGCATGTCCCAGAACAAA [TGCATGCA_site271] | 10.6 ± 0.4 |
| TTTAATAAATTGTGTACACAAAACATATAAATTTCG [CACACA_site5644] | 11.6 ± 0.89 |
| ATTTCATACAGACACACACACAAACAAACATATATA [CACACA_site979] | 10.2 ± 0.22 |
| GTGAAGGTTTATATGTGTACATATATGTATTATATA [XGTACX_site326] | 11.4 ± 0.73 |
| ATTATATATACATATACACACATACGTACATACATA [CACACA_site9194] | 11.5 ± 0.93 |
| TTATTATTCATATATTCACACATTAAAATTTTTCAA [CACACA_site4243] | 9.85 ± 0.028 |
| CATATATAATAATATTGTACATATATAATAATAATA [XGTACX_site3338] | 10.9 ± 0.6 |
